The text below walks through data of the BET-seq Pho4 binding data (Le et al. 2018).

Some of the results follow. The energies were worked out here from pooled read counts, against the library average; single values are noisy.

The experiment deals with T1, Pho4 (S. cerevisiae) (UniProt P07270).
T1 sequence: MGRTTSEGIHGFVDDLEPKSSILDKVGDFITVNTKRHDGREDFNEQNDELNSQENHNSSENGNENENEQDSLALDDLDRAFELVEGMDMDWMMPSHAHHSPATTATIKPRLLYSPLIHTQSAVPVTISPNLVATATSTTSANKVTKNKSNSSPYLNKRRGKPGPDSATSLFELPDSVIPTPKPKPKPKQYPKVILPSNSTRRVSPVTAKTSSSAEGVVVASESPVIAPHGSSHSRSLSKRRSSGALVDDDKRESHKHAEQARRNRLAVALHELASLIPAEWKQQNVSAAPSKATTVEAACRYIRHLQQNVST
Put plainly: relative binding free energy (BET-seq); higher = weaker binding. The note with it: reference: library average.
With TGATTCACGTGGCTTA, the “relative binding free energy” value came to 0.31 kcal/mol.
On to GAGTGCACGTGAGGCG, for which the “relative binding free energy” value came out at 0.23 kcal/mol.
For GGTTTCACGTGGAATG, the “relative binding free energy” value came out at 0.39 kcal/mol.
On to TTAATCACGTGTAGGC, for which the “relative binding free energy” value was determined as 0.24 kcal/mol.
In the case of CTGGTCACGTGGTTAA, the “relative binding free energy” value was determined as 0.04 kcal/mol.
For AACTACACGTGTGTTT, the “relative binding free energy” value stood at 0.2 kcal/mol.
As for CTATCCACGTGTGTGT, the figure is 0.04 kcal/mol; as for GTTTGCACGTGATAGT, 0.09 kcal/mol; as for GATGTCACGTGTTTTC, 0.13 kcal/mol.
In the case of ACGGTCACGTGGTATG it was -0.07 kcal/mol; in that of TCTGGCACGTGACGGG, 0.07 kcal/mol; in that of AGAGTCACGTGCCGGG, 0.02 kcal/mol.
As for GGGTACACGTGTTTTG, the “relative binding free energy” value was determined as 0.14 kcal/mol.
As for TATTGCACGTGACTTT, the figure is 0.16 kcal/mol; as for GTTACCACGTGAGTTT, 0.29 kcal/mol.
As to ATAGGCACGTGCCGGT, the “relative binding free energy” value was -0.17 kcal/mol.
As for TCGTGCACGTGAAATG, the “relative binding free energy” value was 0.24 kcal/mol.
In the case of AGGTGCACGTGACGTT it was 0.06 kcal/mol; in that of TGCTGCACGTGGCTAG, 0.02 kcal/mol.
As for GTACACACGTGTGAGT, the figure is 0.11 kcal/mol; as for ATATCCACGTGGGGTG, -0.22 kcal/mol.
With GAGGCCACGTGTTAGT, the “relative binding free energy” value turned out to be 0.06 kcal/mol.
Take GTATACACGTGGTAAG: the “relative binding free energy” value is -0.1 kcal/mol.
In the case of TATGACACGTGATGAT, the “relative binding free energy” value was 0.15 kcal/mol.
On to AATATCACGTGGTATA, for which the “relative binding free energy” value turned out to be 0.11 kcal/mol.
As to GTCTACACGTGGTTTG, the “relative binding free energy” value came to 0.24 kcal/mol.
Regarding ATGTGCACGTGTGCGG, the “relative binding free energy” value is -0.04 kcal/mol.
As for ATACGCACGTGTGGGG, the figure is -0.08 kcal/mol.
Regarding AAGCTCACGTGTAGTG, the “relative binding free energy” value was determined as 0.15 kcal/mol.
Take GGCGACACGTGTGAGG: the “relative binding free energy” value came to 0.1 kcal/mol.
In the case of ATAATCACGTGGATTT it was 0.11 kcal/mol.
TGCTGCACGTGTGGCT: the “relative binding free energy” value was 0 kcal/mol.
With ATGGCCACGTGGTAAG, the “relative binding free energy” value is -0.03 kcal/mol.
For the sequence AGTGACACGTGTTCTG, the “relative binding free energy” value was -0.13 kcal/mol.
In the case of GTAGTCACGTGCGGGC it was 0.19 kcal/mol; in that of TGGTTCACGTGGGCGG, 0.17 kcal/mol.
As for ACCTTCACGTGTGGTT, the “relative binding free energy” value was determined as 0.31 kcal/mol.
As for ACTGTCACGTGGGCGT, the figure is -0.2 kcal/mol.
In the case of TAAATCACGTGGGTCA it was 0.03 kcal/mol.
In the case of TGAGACACGTGCTGGG it was -0.04 kcal/mol.
Consider GTATGCACGTGAGAGT, for which the “relative binding free energy” value amounted to 0.12 kcal/mol.
Consider TCAGGCACGTGGTTGG, for which the “relative binding free energy” value is -0.08 kcal/mol.
On to ATAGGCACGTGTAGGC, for which the “relative binding free energy” value is -0.04 kcal/mol.
In the case of TGTTGCACGTGTGGGG, the “relative binding free energy” value is 0.08 kcal/mol.
On to TTATACACGTGTTAGC, for which the “relative binding free energy” value is 0.08 kcal/mol.
As for AGGTGCACGTGGAGAC, the figure is -0.03 kcal/mol; as for GGTATCACGTGTTAAA, 0.21 kcal/mol.
In the case of AATTTCACGTGTGTGT, the “relative binding free energy” value was found to be 0.25 kcal/mol.
For the sequence TGGTACACGTGTTTGG, the “relative binding free energy” value was found to be 0.1 kcal/mol.
On to ATAATCACGTGGTTCG, for which the “relative binding free energy” value was 0.16 kcal/mol.
Regarding AGTAGCACGTGTCGAG, the “relative binding free energy” value was 0 kcal/mol.
Regarding GATGTCACGTGGCAGG, the “relative binding free energy” value amounted to 0.1 kcal/mol.
With GGACGCACGTGCAGGT, the “relative binding free energy” value is -0.07 kcal/mol.
For TGATTCACGTGGGTTA, the “relative binding free energy” value turned out to be 0.22 kcal/mol.
TATTACACGTGGTCGG: the “relative binding free energy” value was -0.04 kcal/mol.
TTAGACACGTGTAATG: the “relative binding free energy” value was found to be 0.15 kcal/mol.
As for GGCCACACGTGGAGGG, the “relative binding free energy” value is -0.03 kcal/mol.
Regarding AGGGTCACGTGGGGTT, the “relative binding free energy” value is -0.03 kcal/mol.
Consider AGGTGCACGTGTATAG, for which the “relative binding free energy” value was -0.11 kcal/mol.
In the case of GAAATCACGTGAGTGT, the “relative binding free energy” value amounted to 0.39 kcal/mol.
Regarding TATATCACGTGAGTGT, the “relative binding free energy” value is 0.36 kcal/mol.
GCGGTCACGTGGTGTT: the “relative binding free energy” value turned out to be 0.02 kcal/mol.
Regarding GGTATCACGTGCTAGT, the “relative binding free energy” value turned out to be 0.05 kcal/mol.
As for GCATACACGTGTTAGG, the figure is 0.11 kcal/mol; as for GTGGTCACGTGTGTTG, 0.11 kcal/mol.
As for GGAGACACGTGGAGGT, the figure is -0.01 kcal/mol; as for ATTAGCACGTGAGGCG, 0.07 kcal/mol; as for CTGAGCACGTGGCGTG, -0.25 kcal/mol.
TGTTGCACGTGTAGAA: the “relative binding free energy” value was -0.01 kcal/mol.
Consider GGGTCCACGTGTATTT, for which the “relative binding free energy” value amounted to 0.22 kcal/mol.
In the case of GTATACACGTGGTGAA it was 0.1 kcal/mol; in that of GAATACACGTGTAGTG, 0.25 kcal/mol.
In the case of AGTAGCACGTGGCGTT it was -0.15 kcal/mol; in that of TTCGGCACGTGAGGAA, 0.15 kcal/mol; in that of GTAATCACGTGGTTCG, 0.08 kcal/mol.
For the sequence AGAAGCACGTGTGGGG, the “relative binding free energy” value is -0.07 kcal/mol.
Take TGAATCACGTGTTGGG: the “relative binding free energy” value came out at 0.23 kcal/mol.
Take AAATGCACGTGGAGTG: the “relative binding free energy” value is -0.04 kcal/mol.
In the case of CGCTTCACGTGTGTGG it was 0.21 kcal/mol; in that of TTTCGCACGTGTTTTA, 0.07 kcal/mol.
As for CAGGGCACGTGAGGTT, the figure is 0.01 kcal/mol; as for GTTTGCACGTGTATCG, 0.18 kcal/mol.
As for GGTATCACGTGAAGAT, the figure is 0.42 kcal/mol; as for ATAGTCACGTGTTCGT, -0.01 kcal/mol; as for ACATTCACGTGTATTT, 0.26 kcal/mol.
TAAGTCACGTGTGTTG: the “relative binding free energy” value was 0.04 kcal/mol.
As to GATTACACGTGGTTAT, the “relative binding free energy” value was found to be 0.1 kcal/mol.
For the sequence CGAGACACGTGTGTGG, the “relative binding free energy” value came to 0.12 kcal/mol.
In the case of GTTCGCACGTGAGTTT, the “relative binding free energy” value came to 0.26 kcal/mol.
CAAAGCACGTGGTGGA: the “relative binding free energy” value amounted to 0.07 kcal/mol.
As for TATTTCACGTGAGCAG, the figure is 0.48 kcal/mol; as for TTTGGCACGTGAGGCC, 0.15 kcal/mol.
With GTGAGCACGTGTGGGG, the “relative binding free energy” value was -0.06 kcal/mol.
Regarding TGTGGCACGTGAGGTT, the “relative binding free energy” value stood at 0.17 kcal/mol.
In the case of GTGGGCACGTGTGATC, the “relative binding free energy” value was -0.01 kcal/mol.
Take GGTTACACGTGTTAGT: the “relative binding free energy” value was 0.07 kcal/mol.
With GGAGTCACGTGAAAAG, the “relative binding free energy” value came to 0.33 kcal/mol.
As for GGGGTCACGTGTATCG, the figure is 0.15 kcal/mol.
As to TTTCTCACGTGGCCGG, the “relative binding free energy” value turned out to be 0.17 kcal/mol.
Take GTGATCACGTGGGCAT: the “relative binding free energy” value was -0.13 kcal/mol.
For TGTAGCACGTGCAGAG, the “relative binding free energy” value was -0.14 kcal/mol.
As for GGTGGCACGTGGCATA, the figure is -0.09 kcal/mol; as for CATTACACGTGGTATT, 0.04 kcal/mol.
TCTATCACGTGGTGGA: the “relative binding free energy” value worked out at 0.18 kcal/mol.
With TGGACCACGTGTGTTA, the “relative binding free energy” value turned out to be 0 kcal/mol.
In the case of GGTTTCACGTGTATTA it was 0.34 kcal/mol.
In the case of ATAGTCACGTGAACGG it was 0.27 kcal/mol; in that of GGCTTCACGTGCTGGG, 0.27 kcal/mol.
Regarding GGCGACACGTGAGCGG, the “relative binding free energy” value was found to be 0.22 kcal/mol.
As for TTATCCACGTGGGGTG, the figure is -0.14 kcal/mol.
For the sequence GATTTCACGTGAGTTG, the “relative binding free energy” value amounted to 0.4 kcal/mol.
For the sequence TGACGCACGTGTGTGA, the “relative binding free energy” value was -0.03 kcal/mol.
In the case of GAGTGCACGTGGTATG it was -0.08 kcal/mol.
Consider TATTCCACGTGTAGTT, for which the “relative binding free energy” value is -0.06 kcal/mol.
Regarding TCTCACACGTGTGGGG, the “relative binding free energy” value amounted to 0.07 kcal/mol.
Consider CTTATCACGTGGTGCG, for which the “relative binding free energy” value stood at 0.2 kcal/mol.
Take AGTTACACGTGGTCTT: the “relative binding free energy” value was 0.05 kcal/mol.
For GTTTGCACGTGGAAAT, the “relative binding free energy” value was 0.17 kcal/mol.
As for TTTGCCACGTGTCTTT, the figure is -0.02 kcal/mol; as for GAAATCACGTGGGGAT, 0.18 kcal/mol; as for TGATTCACGTGGTTGA, 0.23 kcal/mol.
AGGTTCACGTGTAAGT: the “relative binding free energy” value is 0.41 kcal/mol.
Regarding GACTGCACGTGCGGGG, the “relative binding free energy” value was -0.17 kcal/mol.
Turning to ACTAGCACGTGGGGTG, the “relative binding free energy” value is -0.29 kcal/mol.
As to AGGTACACGTGGTAAT, the “relative binding free energy” value stood at 0.09 kcal/mol.
As for GTCATCACGTGGTTAA, the “relative binding free energy” value was found to be 0.21 kcal/mol.
For TGTGGCACGTGAAGGG, the “relative binding free energy” value worked out at 0.15 kcal/mol.
As for ATTGTCACGTGAGGAG, the figure is 0.19 kcal/mol; as for TAAATCACGTGGGATG, 0.15 kcal/mol.
As for TTAAACACGTGGCAGG, the figure is 0.02 kcal/mol; as for TTATTCACGTGTGCGC, 0.24 kcal/mol; as for CTAGGCACGTGTGAGT, -0.14 kcal/mol.
TCAGTCACGTGGGGGT: the “relative binding free energy” value is -0.04 kcal/mol.
Consider TCTTACACGTGGGGAG, for which the “relative binding free energy” value was -0.06 kcal/mol.
For TTATACACGTGGGCGA, the “relative binding free energy” value was -0.15 kcal/mol.
As for AATTTCACGTGATGGT, the figure is 0.38 kcal/mol; as for TATATCACGTGAGTAG, 0.22 kcal/mol; as for AGCGGCACGTGGAGGC, -0.11 kcal/mol.
As for ATCGTCACGTGGTGTC, the figure is 0.08 kcal/mol.
Turning to TTATCCACGTGGTTAG, the “relative binding free energy” value was -0.03 kcal/mol.
In the case of GGAAGCACGTGCGAGT, the “relative binding free energy” value was -0.12 kcal/mol.
As for GGTTGCACGTGGTCAA, the “relative binding free energy” value was 0.04 kcal/mol.
In the case of GTTTGCACGTGAGTTT, the “relative binding free energy” value was found to be 0.35 kcal/mol.
In the case of CTGTTCACGTGCGTGG, the “relative binding free energy” value is 0.16 kcal/mol.
GAAAGCACGTGTGAGT: the “relative binding free energy” value turned out to be 0.03 kcal/mol.
For the sequence CATGGCACGTGATTGG, the “relative binding free energy” value was -0.06 kcal/mol.
